Some of the results follow.
What was measured:
Assay in all cases: glycan array binding signal (z-score within array); higher = stronger binding
Conditions in all cases: glycan notation: IUPAC condensed, linker removed; mutation: R343V
[1] = target: GlcNAc(b1-3)[GlcNAc(b1-6)]GalNAc
Procedure, shortened: (§1)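 Columns mapping to the same glycan were averaged after glycan names were converted to IUPAC-condensed notation. The data come from 3228 arrays in the Consortium for Functional Glycomics database, limited to those with an available protein sequence. Binding is reported as a within-array Z-score averaged across arrays of one protein sequence and across linkers.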

[2] = target: GlcNAc(b1-4)Gal(b1-4)GlcNAc
Procedure, shortened: as §1

GlcNAc(b1-4)GlcNAc = target: GlcNAc(b1-4)GlcNAc
Procedure, shortened: as §1

[3] = target: GlcNAc(b1-4)GlcNAc(b1-4)GlcNAc
Procedure, shortened: as §1

[4] = target: GlcNAc(b1-4)GlcNAc(b1-4)GlcNAc(b1-4)GlcNAc(b1-4)GlcNAc
Procedure, shortened: as §1

[5] = target: GlcNAc(b1-4)GlcNAc(b1-4)GlcNAc(b1-4)GlcNAc(b1-4)GlcNAc(b1-4)GlcNAc
Procedure, shortened: as §1

[6] = target: GlcNAc(b1-4)[GlcNAc(b1-6)]GalNAc
Procedure, shortened: as §1

[7] = target: GlcNAc(b1-6)Gal(b1-4)GlcNAc
Procedure, shortened: as §1

GlcNAc(b1-6)GalNAc = target: GlcNAc(b1-6)GalNAc
Procedure, shortened: as §1

GlcNAc3Prop(b1-4)GlcNAc = target: GlcNAc3Prop(b1-4)GlcNAc
Procedure, shortened: as §1

Kdn(a2-3)Gal(b1-3)GlcNAc = target: Kdn(a2-3)Gal(b1-3)GlcNAc
Procedure, shortened: as §1

Kdn(a2-3)Gal(b1-4)GlcNAc = target: Kdn(a2-3)Gal(b1-4)GlcNAc
Procedure, shortened: as §1

[8] = target: Man(a1-2)Man(a1-2)Man(a1-3)Man
Procedure, shortened: as §1

[9] = target: Man(a1-2)Man(a1-2)Man(a1-6)[Man(a1-3)]Man
Procedure, shortened: as §1

Man(a1-2)Man(a1-3)Man = target: Man(a1-2)Man(a1-3)Man
Procedure, shortened: as §1

[10] = target: Man(a1-2)Man(a1-3)[Man(a1-2)Man(a1-6)]Man
Procedure, shortened: as §1

[11] = target: Man(a1-2)Man(a1-3)[Man(a1-2)Man(a1-6)]Man(a1-6)[Man(a1-2)Man(a1-2)Man(a1-3)]Man
Procedure, shortened: as §1

[12] = target: Man(a1-2)Man(a1-3)[Man(a1-2)Man(a1-6)]Man(a1-6)[Man(a1-2)Man(a1-2)Man(a1-3)]Man(b1-4)GlcNAc(b1-4)GlcNAc
Procedure, shortened: as §1

[13] = target: Man(a1-2)Man(a1-3)[Man(a1-6)]Man(a1-6)[Man(a1-2)Man(a1-3)]Man(b1-4)GlcNAc(b1-4)GlcNAc
Procedure, shortened: as §1

[14] = target: Man(a1-2)Man(a1-6)[Man(a1-3)]Man(a1-6)[Man(a1-2)Man(a1-2)Man(a1-3)]Man
Procedure, shortened: as §1

[15] = target: Man(a1-2)Man(a1-6)[Man(a1-3)]Man(a1-6)[Man(a1-2)Man(a1-2)Man(a1-3)]Man(b1-4)GlcNAc(b1-4)GlcNAc
Procedure, shortened: as §1

Man(a1-3)[Man(a1-6)]Man = target: Man(a1-3)[Man(a1-6)]Man
Procedure, shortened: as §1

[16] = target: Man(a1-3)[Man(a1-6)]Man(a1-6)[Man(a1-2)Man(a1-3)]Man(b1-4)GlcNAc(b1-4)GlcNAc
Procedure, shortened: as §1

[17] = target: Man(a1-3)[Man(a1-6)]Man(a1-6)[Man(a1-3)]Man
Procedure, shortened: as §1

[18] = target: Man(a1-3)[Man(a1-6)]Man(a1-6)[Man(a1-3)]Man(b1-4)GlcNAc(b1-4)GlcNAc
Procedure, shortened: as §1

[19] = target: Man(a1-3)[Man(a1-6)]Man(b1-4)GlcNAc(b1-4)GlcNAc
Procedure, shortened: as §1

Man(a1-6)Man = target: Man(a1-6)Man
Procedure, shortened: as §1

Man(b1-4)GlcNAc = target: Man(b1-4)GlcNAc
Procedure, shortened: as §1

Neu5Ac(a2-3)Gal = target: Neu5Ac(a2-3)Gal
Procedure, shortened: as §1

[20] = target: Neu5Ac(a2-3)Gal(b1-3)GalNAc
Procedure, shortened: as §1

[21] = target: Neu5Ac(a2-3)Gal(b1-3)GalNAc(b1-3)Gal(a1-4)Gal(b1-4)Glc
Procedure, shortened: as §1

[22] = target: Neu5Ac(a2-3)Gal(b1-3)GalNAc(b1-3)Gal(b1-4)GlcNAc
Procedure, shortened: as §1

[23] = target: Neu5Ac(a2-3)Gal(b1-3)GalNAc(b1-4)[Neu5Ac(a2-3)]Gal(b1-4)Glc
Procedure, shortened: as §1

[24] = target: Neu5Ac(a2-3)Gal(b1-3)GalNAc6S
Procedure, shortened: as §1

[25] = target: Neu5Ac(a2-3)Gal(b1-3)GlcNAc
Procedure, shortened: as §1

[26] = target: Neu5Ac(a2-3)Gal(b1-3)GlcNAc(b1-3)Gal(b1-3)GlcNAc
Procedure, shortened: as §1

[27] = target: Neu5Ac(a2-3)Gal(b1-3)GlcNAc6S
Procedure, shortened: as §1

[28] = target: Neu5Ac(a2-3)Gal(b1-3)[Fuc(a1-4)]GlcNAc
Procedure, shortened: as §1

B1: Surfactant Protein D (Human); Neck + Carbohydrate Recognition Domain (NCRD) (Homo sapiens) (protein)
chain: MLLFLLSALVLLTQPLGYLEAEMKTYSHRTMPSACTLVMCSSVESGLPGRDRDGREGPRGEKGDPGLPGAAGQAGMPGQAGPVGPKGDNGSVGEPGPKGDTGPSGPPGPPGVPGPAGREGALGKQGNIGPQGKPGPKGEAGPKGEVGAPGMQGSAGARGLAGPKGERGVPGERGVPGNTGAAGSAGAMGPQGSPGARGPPGLKGDKGIPGDKGAKGESGLPDVASLRQQVEALQGQVQHLQAAFSQYKKVELFPNGQSVGEKIFKTAQFVKPFTEAQLLCTQAGGQLASPRSAAENAALQQLVVAKNEAAFLSMTDSKTEGKFTYPTGESLVYSNWAPGEPNDDGGSEDCVEIFTNGKWNDVACGEKRLVVCEF
[1]
  glycan array binding signal (z-score): 2.28
[2]
  glycan array binding signal (z-score): 3.13
GlcNAc(b1-4)GlcNAc
  glycan array binding signal (z-score): 1.25
[3]
  glycan array binding signal (z-score): 1.89
[4]
  glycan array binding signal (z-score): 1.26
[5]
  glycan array binding signal (z-score): 2.23
[6]
  glycan array binding signal (z-score): 2.16
[7]
  glycan array binding signal (z-score): -0.423
GlcNAc(b1-6)GalNAc
  glycan array binding signal (z-score): -0.416
GlcNAc3Prop(b1-4)GlcNAc
  glycan array binding signal (z-score): -0.471
Kdn(a2-3)Gal(b1-3)GlcNAc
  glycan array binding signal (z-score): -0.504
Kdn(a2-3)Gal(b1-4)GlcNAc
  glycan array binding signal (z-score): -0.424
[8]
  glycan array binding signal (z-score): 3.03
[9]
  glycan array binding signal (z-score): 2.93
Man(a1-2)Man(a1-3)Man
  glycan array binding signal (z-score): 2.67
[10]
  glycan array binding signal (z-score): 2.6
[11]
  glycan array binding signal (z-score): 2.77
[12]
  glycan array binding signal (z-score): 1.19
[13]
  glycan array binding signal (z-score): 2.61
[14]
  glycan array binding signal (z-score): 2.75
[15]
  glycan array binding signal (z-score): 3.01
Man(a1-3)[Man(a1-6)]Man
  glycan array binding signal (z-score): 2.02
[16]
  glycan array binding signal (z-score): 3.01
[17]
  glycan array binding signal (z-score): 1.9
[18]
  glycan array binding signal (z-score): 3.27
[19]
  glycan array binding signal (z-score): 2.93
Man(a1-6)Man
  glycan array binding signal (z-score): 0.192
Man(b1-4)GlcNAc
  glycan array binding signal (z-score): 2.12
Neu5Ac(a2-3)Gal
  glycan array binding signal (z-score): -0.401
[20]
  glycan array binding signal (z-score): -0.428
[21]
  glycan array binding signal (z-score): -0.525
[22]
  glycan array binding signal (z-score): -0.482
[23]
  glycan array binding signal (z-score): -0.39
[24]
  glycan array binding signal (z-score): -0.251
[25]
  glycan array binding signal (z-score): -0.447
[26]
  glycan array binding signal (z-score): -0.432
[27]
  glycan array binding signal (z-score): -0.362
[28]
  glycan array binding signal (z-score): -0.48
